Measurements taken from the supplement of paper PMC8728848.
This is one part of the list.

Key:
Experiment in all cases: glycan array binding signal (z-score within array); higher = stronger binding
Settings in all cases: glycan notation: IUPAC condensed, linker removed
[1] = target: Fuc(a1-3)[Gal(b1-4)]GlcNAc
Procedure, shortened: (§1)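 The binding signal is a Z-score computed within each array. Data were drawn from 3228 arrays in the Consortium for Functional Glycomics database, restricted to those with a known protein sequence. Scores were averaged over arrays of the same protein sequence at different concentrations or buffers, and over linkers, and negative values can be taken as non-binding.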

[2] = target: Fuc(a1-3)[Gal(b1-4)]GlcNAc(b1-4)Gal(b1-4)[Fuc(a1-3)]GlcNAc
Procedure, shortened: as §1

[3] = target: Fuc(a1-3)[Gal(b1-4)]GlcNAc(b1-4)Gal(b1-4)[Fuc(a1-3)]GlcNAc(b1-4)Gal(b1-4)[Fuc(a1-3)]GlcNAc
Procedure, shortened: as §1

[4] = target: Fuc(a1-3)[Gal3S(b1-4)]GlcNAc
Procedure, shortened: as §1

[5] = target: Fuc(a1-3)[GalNAc(b1-4)]GlcNAc
Procedure, shortened: as §1

Fuc(a1-4)GlcNAc = target: Fuc(a1-4)GlcNAc
Procedure, shortened: as §1

Fuc(b1-3)GlcNAc = target: Fuc(b1-3)GlcNAc
Procedure, shortened: as §1

Gal(a1-2)Gal = target: Gal(a1-2)Gal
Procedure, shortened: as §1

Gal(a1-3)Gal = target: Gal(a1-3)Gal
Procedure, shortened: as §1

Gal(a1-3)Gal(b1-3)GlcNAc = target: Gal(a1-3)Gal(b1-3)GlcNAc
Procedure, shortened: as §1

Gal(a1-3)Gal(b1-4)Glc = target: Gal(a1-3)Gal(b1-4)Glc
Procedure, shortened: as §1

Gal(a1-3)Gal(b1-4)GlcNAc = target: Gal(a1-3)Gal(b1-4)GlcNAc
Procedure, shortened: as §1

[6] = target: Gal(a1-3)Gal(b1-4)[Fuc(a1-3)]GlcNAc
Procedure, shortened: as §1

Gal(a1-3)GalNAc = target: Gal(a1-3)GalNAc
Procedure, shortened: as §1

[7] = target: Gal(a1-3)[Gal(a1-4)]Gal(b1-4)GlcNAc
Procedure, shortened: as §1

Gal(a1-4)Gal(b1-4)Glc = target: Gal(a1-4)Gal(b1-4)Glc
Procedure, shortened: as §1

Gal(a1-4)Gal(b1-4)GlcNAc = target: Gal(a1-4)Gal(b1-4)GlcNAc
Procedure, shortened: as §1

Gal(a1-4)GlcNAc = target: Gal(a1-4)GlcNAc
Procedure, shortened: as §1

Gal(a1-6)Glc = target: Gal(a1-6)Glc
Procedure, shortened: as §1

Gal(b1-2)Gal = target: Gal(b1-2)Gal
Procedure, shortened: as §1

Gal(b1-3)Gal = target: Gal(b1-3)Gal
Procedure, shortened: as §1

Gal(b1-3)GalNAc = target: Gal(b1-3)GalNAc
Procedure, shortened: as §1

[8] = target: Gal(b1-3)GalNAc(b1-3)Gal(a1-4)Gal(b1-4)Glc
Procedure, shortened: as §1

[9] = target: Gal(b1-3)GalNAc(b1-4)Gal(b1-4)Glc
Procedure, shortened: as §1

[10] = target: Gal(b1-3)GalNAc(b1-4)[Neu5Ac(a2-3)]Gal(b1-4)Glc
Procedure, shortened: as §1

Gal(b1-3)GlcNAc = target: Gal(b1-3)GlcNAc
Procedure, shortened: as §1

[11] = target: Gal(b1-3)GlcNAc(b1-3)Gal(b1-4)Glc
Procedure, shortened: as §1

[12] = target: Gal(b1-3)GlcNAc(b1-3)Gal(b1-4)GlcNAc
Procedure, shortened: as §1

[13] = target: Gal(b1-3)[Fuc(a1-4)]GlcNAc
Procedure, shortened: as §1

[14] = target: Gal(b1-3)[Fuc(a1-4)]GlcNAc(b1-3)Gal(b1-4)GlcNAc
Procedure, shortened: as §1

[15] = target: Gal(b1-3)[Fuc(a1-4)]GlcNAc(b1-3)Gal(b1-4)[Fuc(a1-3)]GlcNAc
Procedure, shortened: as §1

[16] = target: Gal(b1-3)[GlcNAc(b1-6)]GalNAc
Procedure, shortened: as §1

[17] = target: Gal(b1-3)[Neu5Ac(a2-6)]GalNAc
Procedure, shortened: as §1

[18] = target: Gal(b1-3)[Neu5Ac(a2-6)]GlcNAc(b1-6)Gal(b1-4)Glc
Procedure, shortened: as §1

[19] = target: Gal(b1-3)[Neu5Ac(b2-6)]GalNAc
Procedure, shortened: as §1

[20] = target: Gal(b1-4)GalNAc(a1-3)[Fuc(a1-2)]Gal(b1-4)GlcNAc
Procedure, shortened: as §1

[21] = target: Gal(b1-4)GalNAc(b1-3)[Fuc(a1-2)]Gal(b1-4)GlcNAc
Procedure, shortened: as §1

B1: F17bG (Escherichia coli), Q47200 (protein)
chain: MTNFYKVFLAVFILVCCNISHAVVSFIGSTENDVGPSQGSYSSTHAMDNLPFVYNTGYNIGYQNANVWRIGGGFCVGLDGKVDLPVVGSLDGQSIYGLTEEVGLLIWMGDTNYSRGTAMSGNSWENVFSGWCVGNYLSTQGLSVHVRPVILKRNSSAQYSVQKTSIGSIRMRPYNGSSAGSVQTTVNFSLNPFTLNDTVTSCRLLTPSAVNVSLAAISAGQLPSSGDEVVAGTTSLKLQCDAGVTVWATLTDATTPSNRSDILTLTGASTATGVGLRIYKNTDSTPLKFGPDSPVKGNENQWQLSTGTETSPSVRLYVKYVNTGEGINPGTVNGISTFTFSYQ
glycan array binding signal (z-score) [1]: -0.597 | glycan array binding signal (z-score) [2]: -0.046 | glycan array binding signal (z-score) [3]: -0.507 | glycan array binding signal (z-score) [4]: -0.137 | glycan array binding signal (z-score) [5]: -0.574 | glycan array binding signal (z-score) (Fuc(a1-4)GlcNAc): -0.562 | glycan array binding signal (z-score) (Fuc(b1-3)GlcNAc): -0.581 | glycan array binding signal (z-score) (Gal(a1-2)Gal): -0.473 | glycan array binding signal (z-score) (Gal(a1-3)Gal): -0.679 | glycan array binding signal (z-score) (Gal(a1-3)Gal(b1-3)GlcNAc): -0.608 | glycan array binding signal (z-score) (Gal(a1-3)Gal(b1-4)Glc): -0.565 | glycan array binding signal (z-score) (Gal(a1-3)Gal(b1-4)GlcNAc): -0.599 | glycan array binding signal (z-score) [6]: -0.563 | glycan array binding signal (z-score) (Gal(a1-3)GalNAc): -0.482 | glycan array binding signal (z-score) [7]: -0.266 | glycan array binding signal (z-score) (Gal(a1-4)Gal(b1-4)Glc): 0.379 | glycan array binding signal (z-score) (Gal(a1-4)Gal(b1-4)GlcNAc): -0.527 | glycan array binding signal (z-score) (Gal(a1-4)GlcNAc): -0.593 | glycan array binding signal (z-score) (Gal(a1-6)Glc): -0.556 | glycan array binding signal (z-score) (Gal(b1-2)Gal): 0.471 | glycan array binding signal (z-score) (Gal(b1-3)Gal): -0.498 | glycan array binding signal (z-score) (Gal(b1-3)GalNAc): -0.394 | glycan array binding signal (z-score) [8]: -0.619 | glycan array binding signal (z-score) [9]: -0.492 | glycan array binding signal (z-score) [10]: 0.352 | glycan array binding signal (z-score) (Gal(b1-3)GlcNAc): -0.493 | glycan array binding signal (z-score) [11]: -0.533 | glycan array binding signal (z-score) [12]: -0.652 | glycan array binding signal (z-score) [13]: -0.578 | glycan array binding signal (z-score) [14]: -0.574 | glycan array binding signal (z-score) [15]: -0.582 | glycan array binding signal (z-score) [16]: 1.08 | glycan array binding signal (z-score) [17]: -0.345 | glycan array binding signal (z-score) [18]: -0.44 | glycan array binding signal (z-score) [19]: -0.074 | glycan array binding signal (z-score) [20]: -0.608 | glycan array binding signal (z-score) [21]: 0.161
